# “And” between values parts separate entries of the source, which are not always exact repeats. Equal values may be shown once. For some of these results: A note “side channel” means that the fit belongs to a control or component signal, not to the main read-out. The source made the active and inactive calls. Unless noted, calls follow the shape of the dose curve; as a rule, active = well fitted curve in the direction sought with a large enough effect; inconclusive = small, poorly fitted or top-dose-only effect, or another doubt; inactive = no such curve, though single readings can be large; an effect the other way counts as inactive or inconclusive.
# How the values were obtained:
# [1] = molecular target: Bile acid receptor (Homo sapiens) (UniProt Q96RI1); assay: qHTS assay for small molecule antagonists of farnesoid X receptor signaling (AID 588526; calls by dose curve; also: % is scaled to controls: 0 for no effect and ±100 for the full control effect); settings: HEK293T FXR-UAS-bla, beta-lactamase ratio, antagonist mode; activity change, negative = inhibition: at 76.7 µM (top of the series)
# Outline: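 Beta-lactamase reporter antagonist mode: HEK293T FXR-UAS-bla cells, titrated compound, CDCA stimulation, 16 h 37 C, CCF4 dye 2 h RT. Data normalized to CDCA 50 uM and DMSO; Hill-fit IC50.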
# [2] = qHTS for differential inhibitors of proliferation of Plasmodium falciparum line GB4 (AID 1816); settings: Potency: Plasmodium falciparum GB4 proliferation inhibition;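 also: parasite growth measured after 72 h incubation; 0% = vehicle DMSO and -100% = reference inhibitor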
# [3] = molecular target: Parathyroid hormone/parathyroid hormone-related peptide receptor (Homo sapiens) (UniProt Q03431); assay: qHTS for PTHR1 Agonists: Optimization Screen against the NCGC LOPAC library (AID 1347079); settings: HEK293 GP2 PTHR1 GloSensor cAMP luminescence, 1 h;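 also: GloSensor cAMP luminescence in HEK-293 GP2 cells expressing human PTHR1 with IBMX; potency is read from the fitted curve at half-maximal effect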
# Outline: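 HEK-293 GP2 cells, PTHR1 + GloSensor cAMP; 3000 cells/well, o/n. Luciferin + IBMX 0.5mM each (stock), 1 hr 37C. Cpd titration, 1 hr 37C. Lum after 15 min RT. Ctrl M-PTH(1-15) top 10uM.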
# [4] = Quantitative High-Throughput drug screen in 47 multiple myeloma cell lines against the NCATS MIPE library collection: KMS11_JCRBsus cell viability assay (AID 1919873); also: potency is read from the fitted curve at half-maximal effect; nearly all actives have a fitted effect of over 50% in size
# Outline: (§1)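 ATP-based CellTiter-Glo luminescence after 48 h drug exposure (37 °C, 5% CO2) of 500 myeloma cells per well. DMSO-only wells set 100% viability, media-only wells 0%; MIPE 4.0 library added by pin tool.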
# [5] = molecular target: Cytochrome P450 1A2 (Homo sapiens) (UniProt P05177); assay: p450-cyp1a2 (AID 410; calls by dose curve; also: potency is read from the fitted curve at half-maximal effect)
# Outline: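 O-Demethylation of luciferin 6' methyl ether by human CYP1A2 is monitored as luciferase luminescence. Substrate sits at Km (100uM); enzyme is 20nM. Values are scaled to 57 uM furafylline as maximal inhibition.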
# [6] = qHTS to identify inhibitors of the type 1 interferon - major histocompatibility complex class I in skeletal muscle: primary screen against the NCATS LOPAC collection (AID 1347405); settings: iHSKM muscle cells, IFN-b-induced MHC-I HiBiT luminescence, 24 h; activity change, negative = inhibition: at 45.9 µM (top of the series);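 also: human myoblasts with HiBiT tag on endogenous HLA-B stimulated by IFN-beta; lytic HiBiT luminescence reporting HLA-B protein level; potency is read from the fitted curve at half-maximal effect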
# Outline: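 First, engineered myoblasts carrying HLA-B-HiBiT were seeded in medium lacking dexamethasone with 4 ng/ml IFN-beta. After 1 hr, compounds were pinned in (top 46 uM final, 7 points). After 24 hrs at 37 C, luminescence was measured following 10 min lysis.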
# [7] = Cell Viability - LYMP1-003 - Assay at 40 hr (AID 964); settings: LYMP1-003 lymphoblastoid viability; also: potency is read from the fitted curve at half-maximal effect; nearly all actives have a fitted effect of over 60% in size
# Outline: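 Luminescent ATP signal (CellTiter-Glo) served as the viability read-out after 40 hr compound treatment of human lymphoblastoid LYMP1-003 cells at 37 C. Decreases in ATP were fitted with the Hill equation to give AC50.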
# [8] = Cell Viability - LYMP2-026 (AID 989);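 also: potency is read from the fitted curve at half-maximal effect; cells exposed to compound for 24 h at 37 °C; nearly all actives have a fitted effect of over 50% in size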
# Outline: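 Cells are seeded at 2500 per well and held 5 hr at 37 C. Compounds are added in concentration series for 24 hr, then CellTiter-Glo reagent is applied and luminescence read.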
# [9] = molecular target: Estrogen receptor (Homo sapiens) (UniProt P03372); assay: qHTS assay for small molecule antagonists of estrogen receptor alpha signaling (AID 588513; active = well fitted curve in the direction sought with a large enough effect in the signal ratio, with a control signal flat, not every such curve was filed as active; inconclusive = small, poorly fitted or top-dose-only effect, or effect the other way, or a change in a side signal; inactive = no such curve, though single readings can be large or run the other way; the % refers to the signal ratio; also: potency is read from the fitted curve at half-maximal effect; as to activity, negative = inhibition: % is scaled to controls: 0 for no effect and ±100 for the full control effect); settings: ER-alpha-UAS-bla HEK293, beta-lactamase ratio, antagonist mode; activity, negative = inhibition: at 76.9 µM (top of the series)
# Outline: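 Cells were plated at 5000/well and incubated 4 h at 37 C. Compounds were added as 1:2 dilution series, duplicates. 17-beta-estradiol (0.5nM final) was added for 18 h before CCF4 detection.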
# [10] = molecular target: Rap guanine nucleotide exchange factor 4 (Homo sapiens) (UniProt Q8WZA2); assay: Confirmatory qHTS for antagonist of cAMP-regulated guanine nucleotide exchange factor 4 (EPAC2) (AID 1645885); also: potency is read from the fitted curve at half-maximal effect; nearly all actives have a fitted effect of over 25% in size
# [11] = molecular target: Glucocorticoid receptor (Homo sapiens) (UniProt P04150); assay: qHTS assay for small molecule agonists of glucocorticoid receptor signaling (AID 588532; active = well fitted curve in the direction sought with a large enough effect in the signal ratio, with a control signal flat; inconclusive = small, poorly fitted or top-dose-only effect, or a change in a side signal; inactive = no such curve, though single readings can be large or run the other way; the % refers to the signal ratio; also: potency is read from the fitted curve at half-maximal effect;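 as to activation: 100% = dexamethasone at 0.1 µM and 0% = DMSO only wells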); settings: HeLa MMTV-bla, beta-lactamase ratio, agonist, 18 h; activation: stronger effect = higher value, percent of dexamethasone control, DMSO zero
# Outline: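 Agonist-mode qHTS: GRE-driven beta-lactamase in HeLa cells exposed 18 h to titrated compounds (up to 92 uM), then CCF4 ratio read after 2 h at RT; Hill-fitted EC50, efficacy relative to 0.1 uM dexamethasone.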
# [12] = molecular target: Cytochrome P450 3A4 (Homo sapiens) (UniProt P08684); assay: qHTS Assay for Inhibitors and Substrates of Cytochrome P450 3A4 (AID 884); also: nearly all actives have a fitted effect of over 50% in size; as to activity change, negative = inhibition: % is scaled to controls: 0 for no effect and ±100 for the full control effect
# Outline: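 Luminescent readout of luciferin produced by CYP3A4 (20 nM) dealkylation of Luciferin-PPXE, 25 uM (its KM). NADPH-driven reaction ran 60 min at RT after 10 min compound preincubation; data scaled to 57 uM ketoconazole as 100% inhibition.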
# [13] = molecular target: DNA polymerase III PolC-type (Bacillus subtilis (strain 168)) (UniProt P13267); assay: qHTS Validation Assay for the Inhibitors of DNA Replication in Gram-Positive Bacteria (AID 485295); also: potency is read from the fitted curve at half-maximal effect;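 as to activity change, negative = inhibition: reconstituted holoenzyme with PolC plus beta clamp SSB and primase; PicoGreen fluorescence of double-stranded DNA made on primed circular M13 template; 0% = DMSO wells and -100% = EDTA-quenched background wells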
# Outline: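 Primed replication of single-stranded M13Gori by a four-protein B. subtilis holoenzyme is measured at room temperature. Double-stranded product is quantified by PicoGreen fluorescence after an EDTA stop; inhibition is scaled between DMSO and EDTA controls.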
# [14] = Confirmatory screen NINDS Rhodamine qHTS for Zika virus inhibitors (AID 1347161); also: nearly all actives have a fitted effect of over 60% in size; also: potency is read from the fitted curve at half-maximal effect;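 as to activity change, negative = inhibition: purified Zika NS2B-NS3 protease with linked NS2B cofactor domain and Rhodamine110 peptide substrate; plate controls were no-inhibitor control for no effect and no-enzyme control for full effect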
# Outline: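 Each compound, titrated, sat 15 min with 25 nM linked protease before 1.5 microM Rhodamine110 substrate went in. Fluorescence gain over the next 15 min, in pH 8.0 Tris with Tween 20, gave Hill-fitted curves.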
# [15] = molecular target: DNA repair nuclease/redox regulator APEX1 (Homo sapiens) (UniProt P27695); assay: qHTS Validation Assay for Inhibitors of the Human Apurinic/apyrimidinic Endonuclease 1 (APE1) (AID 1705; also: potency is read from the fitted curve at half-maximal effect)
# Outline: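 Endonuclease activity of human APE1 is followed as dequenching when the enzyme incises a tetrahydrofuran abasic site in a short duplex labelled 5'-TAMRA/3'-BHQ-2 (50 nM final), after 15 min enzyme–compound preincubation at room temperature.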
# [16] = molecular target: Thioredoxin reductase 1, cytoplasmic (Rattus norvegicus) (UniProt O89049); assay: qHTS Assay for Substrates of Mammalian Selenoprotein Thioredoxin Reductase 1 (TrxR1) (AID 488772); settings: purified TrxR1, NADPH consumption substrate assay;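 also: potency is read from the fitted curve at half-maximal effect; a drop in NADPH fluorescence below the no-compound background marks a TrxR1 substrate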
# Outline: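 In this dual-purpose format, potential substrates are identified from the first fluorescence read after selenite addition, not from the 8-minute delta. Rat enzyme is preincubated with NADPH and then with compound at ~22 deg C.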
# [17] = qHTS for Activators of Parkin Expression: LOPAC Validation Assay (NLuc Reporter) (AID 720572; also: potency is read from the fitted curve at half-maximal effect)
# Outline: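 Compound effects on Parkin promoter activity were measured as NanoLuc luminescence after 24 h at 37 C. The neuronal reporter line also carried FLuc, which was read first. LOPAC compounds were tested at 7 concentrations, with normalization to DMSO (0%) and positive control (100%).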
# [18] = molecular target: Calcium and integrin-binding protein 1 (Homo sapiens) (UniProt Q99828); assay: Primary qHTS for Identification of Calcium Integrin Binding Protein 1 (CIB1) Competitor (AID 1508620); also: potency is read from the fitted curve at half-maximal effect;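 as to activity change, negative = inhibition: GST tagged CIB1 binding a fluorescein labelled alphaIIb integrin peptide tracer; top concentration of the series differs between compounds; % is scaled to controls: 0 for no effect and ±100 for the full control effect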
# Outline: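 CIB1-GST (1 uM final) and compound incubated 15 min at room temperature before adding FITC-alphaIIb peptide tracer (100 nM final). Competition for binding read by fluorescence polarization (ex 480, em 540) after another 15 min at room temperature.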
# [19] = qHTS for differential inhibitors of proliferation of Plasmodium falciparum line 3D7 (AID 1876); also: potency is read from the fitted curve at half-maximal effect;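 as to activity, negative = inhibition: parasite growth measured after three days of culture; 0% = vehicle wells and -100% = reference inhibitor wells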
# [20] = Quantitative High-Throughput drug screen in 47 multiple myeloma cell lines against the NCATS MIPE library collection: SKMM1_PLB cell viability assay (AID 1919863); settings: SKMM1 myeloma viability, CellTiter-Glo ATP, 48 h; viability: stronger effect = lower value; also: nearly all actives have a fitted effect of over 35% in size
# Outline: as §1
# Tags tell the direction and shape of the fitted curve or compound fluorescence and quenching.
# Sequence of UniProt Q8WZA2 (Q8WZA2 whole entry, looked up): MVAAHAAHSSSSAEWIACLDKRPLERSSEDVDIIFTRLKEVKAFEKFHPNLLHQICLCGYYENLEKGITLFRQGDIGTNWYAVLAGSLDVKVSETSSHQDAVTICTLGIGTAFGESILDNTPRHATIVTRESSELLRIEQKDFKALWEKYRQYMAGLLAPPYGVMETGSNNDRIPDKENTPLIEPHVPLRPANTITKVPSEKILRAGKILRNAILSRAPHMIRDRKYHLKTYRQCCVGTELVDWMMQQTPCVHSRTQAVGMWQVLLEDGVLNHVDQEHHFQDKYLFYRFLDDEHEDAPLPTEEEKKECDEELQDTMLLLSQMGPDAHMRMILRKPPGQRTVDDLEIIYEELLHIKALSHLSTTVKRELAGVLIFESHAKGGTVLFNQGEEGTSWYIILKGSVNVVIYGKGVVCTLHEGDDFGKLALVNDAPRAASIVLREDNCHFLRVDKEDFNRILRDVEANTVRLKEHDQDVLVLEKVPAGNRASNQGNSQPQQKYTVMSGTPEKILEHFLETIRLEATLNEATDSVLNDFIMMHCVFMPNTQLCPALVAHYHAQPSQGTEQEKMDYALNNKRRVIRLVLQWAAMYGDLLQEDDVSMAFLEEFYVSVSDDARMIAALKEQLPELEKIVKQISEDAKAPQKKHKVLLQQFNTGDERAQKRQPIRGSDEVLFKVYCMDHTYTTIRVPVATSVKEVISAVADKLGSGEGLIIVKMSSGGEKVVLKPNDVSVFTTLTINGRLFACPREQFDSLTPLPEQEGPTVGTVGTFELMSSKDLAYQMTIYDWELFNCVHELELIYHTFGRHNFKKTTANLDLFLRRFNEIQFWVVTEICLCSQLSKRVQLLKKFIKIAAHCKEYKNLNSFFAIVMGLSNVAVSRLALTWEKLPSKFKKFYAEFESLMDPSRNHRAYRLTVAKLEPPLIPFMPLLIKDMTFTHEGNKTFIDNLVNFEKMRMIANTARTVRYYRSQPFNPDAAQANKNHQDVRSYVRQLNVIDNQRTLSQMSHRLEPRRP
# Sequence of UniProt P08684 (P08684 whole entry, looked up): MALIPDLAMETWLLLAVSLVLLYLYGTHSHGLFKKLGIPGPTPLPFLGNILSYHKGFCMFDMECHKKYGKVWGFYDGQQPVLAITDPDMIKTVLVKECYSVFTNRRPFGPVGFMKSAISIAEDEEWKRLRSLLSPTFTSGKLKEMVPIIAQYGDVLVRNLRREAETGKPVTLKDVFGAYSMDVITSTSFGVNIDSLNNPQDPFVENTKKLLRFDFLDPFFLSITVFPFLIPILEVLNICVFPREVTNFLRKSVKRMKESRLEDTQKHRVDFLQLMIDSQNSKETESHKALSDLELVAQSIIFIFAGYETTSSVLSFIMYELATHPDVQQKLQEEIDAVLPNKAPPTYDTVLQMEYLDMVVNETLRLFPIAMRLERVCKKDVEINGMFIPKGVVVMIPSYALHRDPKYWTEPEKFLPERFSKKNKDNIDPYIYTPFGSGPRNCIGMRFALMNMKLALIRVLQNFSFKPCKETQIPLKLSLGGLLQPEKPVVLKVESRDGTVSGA
# Sequence of UniProt O89049 (O89049 whole entry, looked up): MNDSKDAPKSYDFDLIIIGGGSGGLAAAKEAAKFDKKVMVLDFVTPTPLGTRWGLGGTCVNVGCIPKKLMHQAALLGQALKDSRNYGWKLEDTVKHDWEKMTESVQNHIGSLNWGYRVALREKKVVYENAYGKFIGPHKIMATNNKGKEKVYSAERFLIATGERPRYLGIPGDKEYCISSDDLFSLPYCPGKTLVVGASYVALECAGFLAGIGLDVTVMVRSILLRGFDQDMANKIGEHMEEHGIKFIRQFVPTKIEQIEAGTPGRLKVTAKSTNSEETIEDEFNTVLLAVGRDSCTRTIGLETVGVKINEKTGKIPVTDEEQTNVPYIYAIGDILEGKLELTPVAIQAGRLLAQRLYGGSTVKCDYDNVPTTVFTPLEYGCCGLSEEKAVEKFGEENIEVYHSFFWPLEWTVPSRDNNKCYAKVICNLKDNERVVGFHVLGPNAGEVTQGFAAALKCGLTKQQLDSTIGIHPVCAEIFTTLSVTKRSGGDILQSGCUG
# Sequence of UniProt P05177 (P05177 whole entry, looked up): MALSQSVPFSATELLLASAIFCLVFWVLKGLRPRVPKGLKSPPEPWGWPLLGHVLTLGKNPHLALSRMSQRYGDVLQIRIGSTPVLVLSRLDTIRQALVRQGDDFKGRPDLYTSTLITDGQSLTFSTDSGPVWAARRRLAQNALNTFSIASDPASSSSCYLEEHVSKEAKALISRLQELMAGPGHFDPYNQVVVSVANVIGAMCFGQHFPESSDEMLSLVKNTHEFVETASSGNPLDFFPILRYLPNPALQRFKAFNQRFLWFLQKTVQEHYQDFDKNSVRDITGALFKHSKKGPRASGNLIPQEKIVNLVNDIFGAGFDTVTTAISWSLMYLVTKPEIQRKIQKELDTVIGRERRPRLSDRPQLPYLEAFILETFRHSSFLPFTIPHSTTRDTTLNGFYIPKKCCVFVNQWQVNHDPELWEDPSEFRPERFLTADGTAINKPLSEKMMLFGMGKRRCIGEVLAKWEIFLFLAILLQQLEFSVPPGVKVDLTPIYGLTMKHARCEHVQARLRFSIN
# Sequence of UniProt P03372 (P03372 whole entry, looked up): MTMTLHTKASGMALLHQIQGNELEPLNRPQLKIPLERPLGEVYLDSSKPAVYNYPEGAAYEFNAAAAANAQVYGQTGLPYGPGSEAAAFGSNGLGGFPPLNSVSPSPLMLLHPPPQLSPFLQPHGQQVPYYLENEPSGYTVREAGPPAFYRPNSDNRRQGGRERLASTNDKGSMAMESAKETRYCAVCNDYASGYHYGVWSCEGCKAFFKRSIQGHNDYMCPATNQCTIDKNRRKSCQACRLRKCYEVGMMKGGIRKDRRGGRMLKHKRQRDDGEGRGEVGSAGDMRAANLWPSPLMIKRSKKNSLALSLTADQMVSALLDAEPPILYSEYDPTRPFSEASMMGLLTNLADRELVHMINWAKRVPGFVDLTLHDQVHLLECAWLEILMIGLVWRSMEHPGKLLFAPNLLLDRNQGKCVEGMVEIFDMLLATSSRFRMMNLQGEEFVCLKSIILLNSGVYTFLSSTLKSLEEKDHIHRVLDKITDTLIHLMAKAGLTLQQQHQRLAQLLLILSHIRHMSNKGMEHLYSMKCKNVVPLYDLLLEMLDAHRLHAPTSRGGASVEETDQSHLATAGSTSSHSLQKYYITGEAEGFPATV
# Sequence of UniProt Q99828 (Q99828 whole entry, looked up): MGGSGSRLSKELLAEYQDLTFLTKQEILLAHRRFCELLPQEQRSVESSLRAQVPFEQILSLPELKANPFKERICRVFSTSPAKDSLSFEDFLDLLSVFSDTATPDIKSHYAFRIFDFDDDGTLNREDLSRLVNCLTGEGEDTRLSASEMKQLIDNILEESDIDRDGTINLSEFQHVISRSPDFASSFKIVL
# Sequence of UniProt P27695 (P27695 whole entry, looked up): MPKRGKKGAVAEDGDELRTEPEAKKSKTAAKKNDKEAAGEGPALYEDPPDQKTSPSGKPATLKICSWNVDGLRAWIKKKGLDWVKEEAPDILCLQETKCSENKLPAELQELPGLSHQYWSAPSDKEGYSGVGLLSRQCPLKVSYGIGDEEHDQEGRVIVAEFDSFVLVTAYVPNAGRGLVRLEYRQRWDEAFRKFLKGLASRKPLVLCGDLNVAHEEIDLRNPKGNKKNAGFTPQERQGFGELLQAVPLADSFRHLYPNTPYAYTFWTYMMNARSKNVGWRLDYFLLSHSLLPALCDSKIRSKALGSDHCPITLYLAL
# Sequence of UniProt Q96RI1 (Q96RI1 whole entry, looked up): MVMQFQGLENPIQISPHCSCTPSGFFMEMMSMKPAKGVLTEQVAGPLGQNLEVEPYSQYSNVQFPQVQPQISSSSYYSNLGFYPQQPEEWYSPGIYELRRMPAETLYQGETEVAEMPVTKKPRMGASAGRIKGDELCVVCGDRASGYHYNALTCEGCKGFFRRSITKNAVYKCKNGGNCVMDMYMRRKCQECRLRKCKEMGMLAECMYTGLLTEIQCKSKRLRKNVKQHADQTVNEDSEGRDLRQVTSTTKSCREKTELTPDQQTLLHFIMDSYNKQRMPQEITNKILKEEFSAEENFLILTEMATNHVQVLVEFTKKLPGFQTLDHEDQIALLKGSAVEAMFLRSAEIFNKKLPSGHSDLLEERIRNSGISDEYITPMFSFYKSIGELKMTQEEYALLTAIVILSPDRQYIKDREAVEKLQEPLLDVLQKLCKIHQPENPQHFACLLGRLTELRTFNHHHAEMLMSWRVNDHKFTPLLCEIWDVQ
# Sequence of UniProt Q03431 (Q03431 whole entry, looked up): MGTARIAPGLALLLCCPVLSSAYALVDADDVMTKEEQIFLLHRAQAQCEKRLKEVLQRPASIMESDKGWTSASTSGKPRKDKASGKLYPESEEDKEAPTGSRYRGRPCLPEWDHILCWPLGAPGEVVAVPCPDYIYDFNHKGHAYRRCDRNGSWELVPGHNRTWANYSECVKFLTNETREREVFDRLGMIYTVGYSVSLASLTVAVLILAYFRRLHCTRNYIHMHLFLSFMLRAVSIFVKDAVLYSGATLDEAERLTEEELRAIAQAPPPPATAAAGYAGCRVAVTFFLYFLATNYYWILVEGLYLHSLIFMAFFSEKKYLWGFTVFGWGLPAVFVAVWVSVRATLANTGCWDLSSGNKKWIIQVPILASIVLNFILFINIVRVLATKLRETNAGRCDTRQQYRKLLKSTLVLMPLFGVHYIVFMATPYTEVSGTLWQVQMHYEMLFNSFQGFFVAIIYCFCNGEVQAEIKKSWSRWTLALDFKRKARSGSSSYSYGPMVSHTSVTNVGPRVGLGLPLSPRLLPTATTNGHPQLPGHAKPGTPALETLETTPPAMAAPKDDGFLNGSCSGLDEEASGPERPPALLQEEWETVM
compound,measurement,setting,value
O=C(Oc1ccccc1)c1cccc(C(=O)Oc2ccccc2)c1,Potency,[1],inactive
COc1ccccc1N1CCN(CCN2C(=O)CC3(CCCC3)CC2=O)CC1,Potency,[2],inactive
CC(C)(C)NCC(O)c1cc(O)cc(O)c1 (configuration not stated),Potency,[3],"inconclusive: 0.844 µM [activator, full curve, poor fit]"
CC(C)Cn1cnc2c(N)nc3ccccc3c21,Potency,[4],"inconclusive: 10.5 µM [cytotoxic, partial curve]"
CCCC(C(=O)OCCN(CC)CC)(c1ccccc1)c1ccccc1,Potency,[5],inconclusive: 12.6 µM [decreasing]
same,Potency,[6],"inconclusive: 35.5 µM [inhibitor, single point]"
COc1ccc(C(Cl)=C(c2ccc(OC)cc2)c2ccc(OC)cc2)cc1,Potency,[7],"inconclusive: 63.1 µM [cytotoxic, partial curve, poor fit]"
same,Potency,[8],"inconclusive: 79.4 µM [cytotoxic, single point]"
same,Potency,[9],active: 1.58 µM [inconclusive]
same,Potency,[10],"inconclusive: 4.41 µM [inhibitor, full curve] and active: 7.84 µM and active: 2.31 µM"
CCOc1ccccc1C(N)=O,activation,[11],inactive: -1.86%
CCc1cc(Cl)c(OC)c(C(=O)NC[C@@H]2CCCN2CC)c1O,Potency,[5],active: 3.98 µM
CN(C)CCCN1c2ccccc2CCc2ccccc21,Potency,[12],inactive
same,outcome,[12],inactive
same,Potency,[13],inactive
CC(=O)OC/C=C(C)/C=C/C=C(C)/C=C/C1=C(C)CCCC1(C)C,Potency,[7],"inconclusive: 50.1 µM [cytotoxic, partial curve]"
same,Potency,[8],"inconclusive: 79.4 µM [cytotoxic, partial curve, poor fit]"
same,"activity, negative = inhibition",[9],inconclusive: -87.9%
Cc1nc2sccn2c(=O)c1CCN1CCC(=C(c2ccc(F)cc2)c2ccc(F)cc2)CC1,Potency,[13],"inconclusive: 21.2 µM [inhibitor, single point]"
same,Potency,[14],inactive
same,Potency,[10],active: 44.1 µM
CN[C@H]1CC[C@@H](c2ccc(Cl)c(Cl)c2)c2ccccc21,Potency,[6],active: 28.2 µM
CC1=C(C)C(=O)C(CCCCC#CCCCC#CCO)=C(C)C1=O,Potency,[15],"inconclusive: 14.1 µM [inhibitor, full curve]"
CCCCCCCC/C=C\CCCCCCCC(=O)NCc1ccc(O)c(OC)c1,Potency,[16],"inconclusive: 15 µM [inhibitor, partial curve]"
same,Potency,[17],"inconclusive: 20.6 µM [activator, single point]"
CC(=O)NC(Cc1ccccc1)C(=O)O (configuration not stated),Potency,[18],"inconclusive: 100 µM [inhibitor, partial curve]"
COC(=O)[C@@H](N)Cc1ccc(O)c(O)c1,Potency,[19],"inconclusive: 11.2 µM [inhibitor, single point]"
same,Potency,[16],"inconclusive: 37.7 µM [inhibitor, partial curve, poor fit]"
CC(C)[N+](C)(CCOC(=O)C1c2ccccc2Oc2ccccc21)C(C)C,Potency,[15],"inconclusive: 39.8 µM [inhibitor, single point]"
O=C(NCc1ccccc1)[C@H](Cc1ccccc1)NC(=O)[C@@H]1O[C@@H]1C(=O)NCCc1ccc(O)cc1,viability,[20],inactive: 128%
same,Potency,[4],"inconclusive: 26.4 µM [cytotoxic, partial curve, poor fit]"
COC(=O)C=CC(=O)OC,Potency,[18],inactive
same,viability,[20],inactive: 144%
CCN(CC)CCNC(=O)c1ccc(NC(C)=O)cc1,Potency,[19],inactive
CCCCOC(=O)CC(CC(=O)OCCCC)(OC(C)=O)C(=O)OCCCC,Potency,[11],"inconclusive: 17.8 µM [side channel, falling, partial curve, poor fit]"
N#Cc1ccc(N2N=C3c4ccc(C(=O)O)cc4CC[C@@H]3[C@@H]2C2CCCC2)cc1Cl,Potency,[14],active: 1.75 µM
Cc1cccc(C)c1OCC(C)N (configuration not stated),Potency,[17],inactive

# Reference: PubChem BioAssay (NCATS)
